Out of some 310,000 compounds screened, about 2,200 (0.71%) showed an effect of 50% or more. Effects have a minus sign here. The list shows a part of the results.

The values that follow come from publication PMC4336329 (PLoS ONE, 2015).

For the assay, the target named is human ether-à-go-go-related gene (hERG) potassium channel (human, UniProt Q12809). The assay is described as follows: primary screen, population patch clamp on CHO cells stably expressing hERG.
Sequence of human ether-à-go-go-related gene (hERG) potassium channel (Q12809 whole entry, looked up): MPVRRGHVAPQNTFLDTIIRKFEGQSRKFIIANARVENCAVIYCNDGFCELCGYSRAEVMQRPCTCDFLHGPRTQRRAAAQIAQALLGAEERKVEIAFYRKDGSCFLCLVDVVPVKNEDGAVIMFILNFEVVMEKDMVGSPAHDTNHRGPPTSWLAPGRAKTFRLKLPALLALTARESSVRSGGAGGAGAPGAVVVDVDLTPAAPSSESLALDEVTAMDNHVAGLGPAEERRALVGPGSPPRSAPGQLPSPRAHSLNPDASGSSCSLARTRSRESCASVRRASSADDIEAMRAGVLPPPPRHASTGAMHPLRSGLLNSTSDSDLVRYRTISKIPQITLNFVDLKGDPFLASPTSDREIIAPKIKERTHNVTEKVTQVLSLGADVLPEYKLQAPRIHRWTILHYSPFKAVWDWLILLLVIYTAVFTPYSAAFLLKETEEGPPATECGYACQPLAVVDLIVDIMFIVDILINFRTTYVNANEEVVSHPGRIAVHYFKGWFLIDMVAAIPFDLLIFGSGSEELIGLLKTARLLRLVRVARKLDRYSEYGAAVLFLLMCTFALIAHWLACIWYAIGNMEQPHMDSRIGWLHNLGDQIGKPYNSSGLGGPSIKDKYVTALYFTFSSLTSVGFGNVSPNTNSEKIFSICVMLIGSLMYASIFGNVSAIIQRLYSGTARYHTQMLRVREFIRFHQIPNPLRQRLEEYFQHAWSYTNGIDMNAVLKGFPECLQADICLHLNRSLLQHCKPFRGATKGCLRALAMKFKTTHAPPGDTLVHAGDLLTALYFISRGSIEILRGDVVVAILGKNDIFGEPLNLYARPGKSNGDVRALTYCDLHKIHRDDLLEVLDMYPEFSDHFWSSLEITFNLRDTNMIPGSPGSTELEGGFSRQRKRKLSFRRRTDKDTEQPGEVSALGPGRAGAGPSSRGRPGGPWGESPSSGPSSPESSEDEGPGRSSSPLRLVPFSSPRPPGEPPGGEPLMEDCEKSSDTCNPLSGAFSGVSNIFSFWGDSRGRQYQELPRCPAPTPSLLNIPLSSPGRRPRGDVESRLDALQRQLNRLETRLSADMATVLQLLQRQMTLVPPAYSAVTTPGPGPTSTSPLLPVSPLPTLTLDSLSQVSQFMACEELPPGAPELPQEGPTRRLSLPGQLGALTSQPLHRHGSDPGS
As to `Cc1cc(C)c2c(=O)cc(C(F)F)oc2c1`, the “hERG current change (%, negative = inhibition) at 1uM” value worked out at 9.75%. As for `Cc1ccc(-c2nnc(SCC#CCOC(=O)c3ccco3)o2)cc1`, the “hERG current change (%, negative = inhibition) at 1uM” value came to 11.2%. Next, `CCOC(=O)c1cc(CC)sc1NC(=O)CC1Sc2ccc(C(F)(F)F)cc2NC1=O` (stereo not shown): 17.9%; `CCCCN1C(=O)N(c2ccccc2Cl)C(C)(O)CC1(C)C` (stereo not shown): 17.3%; `Cc1cccc(NC(=O)c2ccc(S(=O)(=O)C(F)F)cc2)c1C`: 10.9%. Consider `CN(C)c1nc(SCc2ccccc2Cl)nc2c1CCCC2`, for which the “hERG current change (%, negative = inhibition) at 1uM” value came out at 11.7%. Next, `COc1ccc(-c2noc(N3CCC(C(=O)Nc4ccc(F)cc4)CC3)n2)cc1`: -0.13%; `CC1CN(C(=O)c2cccc(Oc3ccccc3)c2)CC(C)O1` (stereo not shown): 19.7%. Next, `CC(=O)c1ccc(NC(=S)N2CCCC2)cc1`: 15.2%. Next, `C=CCSC1=C(C#N)C(c2ccccc2Cl)C(C(=O)c2cccs2)C(O)(C(F)(F)F)N1` (stereo not shown): 3.64%; `O=C(CSCCNS(=O)(=O)c1ccccc1)Nc1ccccc1`: 4.03%; `COc1ccccc1OCc1ccc(C(=O)NN)cc1`: 5.11%. Regarding `CC(C)Oc1ccc(CN2CCC(n3nccc3NC(=O)CCc3ccccc3)CC2)cc1`, the “hERG current change (%, negative = inhibition) at 1uM” value was -86.3%.

`CC(C)CNC(=O)NC(=O)COC(=O)COc1ccc(Cl)cc1Cl`: the “hERG current change (%, negative = inhibition) at 1uM” value was determined as 11.3%. Regarding `COc1ccc(NS(=O)(=O)c2cccc(NC(=O)NC3CCCCC3)c2)cc1`, the “hERG current change (%, negative = inhibition) at 1uM” value amounted to 9.84%. Next, `N/C(Cc1ccc([N+](=O)[O-])cc1)=N\OC(=O)c1cccc(Br)c1`: -11.9%; `C[C@@H](Oc1ccccc1)c1nnn(Cc2ccccc2)c1-c1c([C@@H](C)Oc2ccccc2)nnn1Cc1ccccc1`: 6.17%. Next, `N/C(=N\OC(=O)Cc1cccs1)c1ccc([N+](=O)[O-])cc1`: 6.94%; `C=CCn1c(-c2cccnc2Cl)nc2cc(Cl)c(Cl)cc21`: 16.4%; `CC(=O)Nc1cc(C(=O)N2CCC3(CC2)OCCO3)ccc1Sc1ccc(C)cc1`: -0.665%. Next, `O=C(COC(=O)c1cncc(Br)c1)NC1CCCC1`: 9.2%; `O=C(CCc1ccncc1)NC1CCCc2c1cnn2-c1ccc(F)cc1F` (stereo not shown): 3.41%; `COc1ccc(NC(=O)COC(=O)[C@@H](NC(=O)c2c(F)cccc2F)C(C)C)cc1`: 4.65%. With `Cc1ccc(-n2ncc3c(NNC(=O)c4ccco4)ncnc32)cc1Cl`, the “hERG current change (%, negative = inhibition) at 1uM” value is given as 16.1%. For the molecule `c1ccc2c(c1)CCN(c1nc3cc4c(cc3s1)OCO4)C2`, the “hERG current change (%, negative = inhibition) at 1uM” value is on record as 12.9%. Next, `CCOC(=O)c1cc(-c2ccc(OC)cc2)n(CCC(=O)NC2CCN(Cc3ccccc3)CC2)c1C`: -19.9%; `O=S(=O)(NCC1CCCO1)c1ccc(S(=O)(=O)N(Cc2ccc(F)cc2)Cc2ccco2)cc1` (stereo not shown): 6.06%; `CC(=O)c1nn(-c2cccc(Br)c2)cc1C(=O)c1ccc(Br)cc1`: 8.65%. Next, `CCCCNc1nc(C)c(C(C)=O)cc1C#N`: 19.1%. Next, `CC(OC(=O)/C(C#N)=C/c1ccc(N(C)C)cc1)C(=O)N(C)c1ccccc1` (stereo not shown): 4.66%; `O=C(CN(c1ccc(F)cc1)S(=O)(=O)c1ccc2c(c1)OCCO2)NCc1ccncc1`: -10.2%; `CCOC(=O)CNC(=O)CSc1cc(C)nc2ccc(OC)cc12`: 16.5%. In the case of `O=C(CSCc1ccccc1Cl)Nc1c[nH]c(=O)[nH]c1=O`, the “hERG current change (%, negative = inhibition) at 1uM” value is listed as 13.8%. Next, `CC(C)=CCCC(C)CN1CCC(n2nccc2NC(=O)c2cccnc2)CC1` (stereo not shown): -5.79%; `Cc1nc(C)c(-c2nnc(-c3ccccc3Cl)o2)cc1C(=O)NN`: 3.19%; `CC1CCN(c2ccc(C(=O)NCc3ccco3)cc2[N+](=O)[O-])CC1`: 0.326%. Next, `CCN(CC)C(=O)c1sc(NC(=O)c2ccoc2C)c(C(=O)OC)c1C`: 13.8%; `CC(Oc1ccc(Cl)cc1)C(=O)OCC(=O)Nc1ncc(Cl)cc1Cl` (stereo not shown): 3.29%; `COc1ccc(C(=O)NC(C(=O)N2CCc3ccccc32)C(C)C)cc1` (stereo not shown): 11%. Next, `Cc1nn(-c2ccccc2)c2sc(C(=O)N(Cc3ccco3)C(C)C(=O)NC(C)(C)C)cc12` (stereo not shown): 8.78%. Regarding `COc1ccc(C(C(=O)Nc2ccc3c(c2)OCO3)N(C)C(=O)Cc2c[nH]c3ccccc23)cc1` (stereo not shown), the “hERG current change (%, negative = inhibition) at 1uM” value is reported as -2.04%. As for `C=C1CCC[C@]2(C)C[C@H]3OC(=O)C(CNC(C)CC)[C@H]3CC12` (stereo partly shown), the “hERG current change (%, negative = inhibition) at 1uM” value came to 8.22%. In the case of `Fc1cccc(CN2CCN(c3ccc(Cl)cc3)CC2)c1`, the “hERG current change (%, negative = inhibition) at 1uM” value came to 16.7%.
